Results from the supplement of paper PMC12889115.
The list shows a part of the results. Repeats are few or missing, and single values can be far off.

System: Salmonella enterica serovar Typhimurium SL1344
Assay: bacterial growth OD600 after 18 h in MHB with 0.5 µg/mL polymyxin B; higher = more bacterial growth (less inhibition)
Conditions: 25 µM; polymyxin B 0.5 µg/mL; system: broth
Method: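 Secondary screen of the 553 primary hits at 25 µM. (i) S. Typhimurium SL1344 grown in Mueller-Hinton broth with 0.5 µg/mL polymyxin B, OD600 read after 18 h. (ii) SAFIRE assay: RAW 264.7 macrophages infected with S. Typhimurium sifB::gfp (MOI 30); compound added 2 h post-infection; cells fixed at 18 h; GFP-positive pixel fraction per macrophage imaged by confocal microscopy and expressed as % of DMSO control.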
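Further: polymyxin B level opens the outer membrane while sparing the inner membrane, with novobiocin wells as reference growth inhibitor.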

SMILES	bacterial growth OD600
C=C(C)CN(CC)C(=O)c1cc(COc2cc(C)c(Cl)c(C)c2)on1	-0.013
O=C(c1coc(Cn2cnc3ccccc32)n1)N1CCC(C2CCCCC2)C1 (stereo not given)	0.004
O=C(CC1(c2ccccc2Cl)CC(=O)N(C2CCCC2)C1=O)N1CCCCCC1 (stereo not given)	0
COc1ccccc1CCC(=O)N1CCc2onc(-c3ccc(Cl)cc3)c2C1	-0.002
COC(=O)c1sccc1S(=O)(=O)N1CCCC(C(=O)c2cccc(Cl)c2)C1 (stereo not given)	0.003
COC(=O)c1ccc(CN2CCOc3ccc(C(C)(O)COc4ccccc4)cc3C2)cc1 (stereo not given)	-0.013
COc1ccc2c(c1)SC(c1ccc(OC)c(C)c1)CCN2Cc1cccc2nccnc12 (stereo not given)	0.381
O=C(c1ccc(Cn2cnnn2)cc1)N1CCCC(CCc2ccccc2)C1 (stereo not given)	0.006
Cn1nccc1C(=O)NCC1Cc2cc(-c3cccc(OC(F)(F)F)c3)ccc2O1 (stereo not given)	-0.005
COCc1ccc(C(=O)N2CCc3c([nH]c4ccccc34)C2c2cccc(C)n2)o1 (stereo not given)	0.003
CCOC(=O)C1(Cc2ccccc2F)CCCN(C(=O)c2cc(OC)cc(OC)c2)C1 (stereo not given)	0.273
CCOC(=O)C1(Cc2ccc(F)cc2)CCCN(C(=O)c2cc(C3CC3)n[nH]2)C1 (stereo not given)	0.006
COc1ccc(OC)c(-c2cc(Cl)c3c(c2)CC(CNC(=O)c2cc(C)oc2C)O3)c1 (stereo not given)	0.003
CC(Cc1cccnc1)NC(=O)c1cc(COc2cccc3cnccc23)on1 (stereo not given)	0.563
Cc1nn(C)c(C)c1CN(C(=O)CC1(c2ccc(-c3ccccc3)cc2)CC(=O)N(C)C1=O)C1CC1 (stereo not given)	-0.001
CCOC(=O)C1(CCCc2ccccc2)CCN(C(=O)Cc2cccnc2)CC1	0.003
O=C(c1cc(CCc2ccccc2)no1)N1CCCC(c2ccccc2)C1 (stereo not given)	-0.008
CN(Cc1ccc(C(F)(F)F)cc1)C(=O)c1cn(Cc2ccc(F)cc2)nn1	0.002
COCCNC(=O)c1ccc(OC2CCN(Cc3ccccc3OC)CC2)c(Cl)c1	0.637
O=C(CCC(F)(F)F)N1CCc2onc(-c3cccc4ccccc34)c2C1	0.009

SMILES	bacterial growth OD600
CCOC(=O)C1(CC2CC2)CCN(C(=O)C(C)Oc2cccc(Cl)c2)CC1 (stereo not given)	0.086
CCn1ccnc1CN1CCCC1C(=O)Nc1ccc(-c2cccc(F)c2)cc1 (stereo not given)	0.001
Fc1cccc(C2CCN(CC3CC3)c3ccccc3S2)c1 (stereo not given)	0.066
O=C(c1cn(Cc2ccc(F)cc2)nn1)N1CCCC1c1nc2ccccc2s1 (stereo not given)	0.299
CCC(=O)C1CCCN(C(=O)C2CCCN(c3nc(C)c4ccc(OC)cc4n3)C2)C1 (stereo not given)	0.006
COc1ccccc1CNC(=O)c1coc(COc2ccc(F)cc2)n1	0.087
CC(=O)N1CCN(C(=O)CC(c2ccccc2)c2cccc(Cl)c2)CC1 (stereo not given)	0.639
Cc1ccc2c(c1)CN(CC(=O)NCc1cnn(Cc3ccccc3)c1)CC(c1ccsc1)O2 (stereo not given)	-0.019
CCOC(=O)C1(Cc2cccc(Cl)c2)CCCN(C(=O)c2cc(CC)on2)C1 (stereo not given)	0.02
Cc1cc(C(=O)N(Cc2ccncc2)Cc2cccc(OCCc3ccc(F)cc3)c2)n(C)n1	0.004
CN(Cc1ccccc1Cl)C(=O)c1coc(COc2cccc(F)c2)n1	0.002
O=C(CN1CCOC1=O)N1CCCC(CCc2cccc(C(F)(F)F)c2)C1 (stereo not given)	0.008
c1cc(C2CCCCC2)ccc1-c1cnnc(N2CCOCC2)n1	0.003
CN(CCc1cnn(C)c1)c1nncc(-c2ccc3ccccc3c2)n1	0.002
CCN(CC)c1ncccc1CNC(=O)c1cccc(Cl)c1	0.631
CC1CN(Cc2ccsc2)Cc2cc(Cl)ccc2O1 (stereo not given)	0.196
CCCCN(C)C(=O)c1nc2ccccn2c1CNCc1c(OC)ccc2ccccc12	0.005
COc1cccc(CC(C2CCN(C(=O)CC3CCCCC3)CC2)N(C)C(=O)c2ccsc2)c1 (stereo not given)	0.007
CN(Cc1ccccc1C(F)(F)F)C(=O)CCC1(Cc2cccc3ccccc23)CCC(=O)N1 (stereo not given)	-0.003
COc1ccccc1OC1CCN(c2nncc(-c3ccccc3C)n2)CC1	-0.025
